Data as given in the supplement of paper PMC10126150.
Sequences with one replicate were seen in a single cluster, so their values are uncertain.

Test system: ATP
Assay: switch fluorescence ratio, 500 uM ATP over buffer (Cy3 cluster intensity, sum of 5 cycles each) (fold (ratio)); higher = stronger signal-on switching upon ATP binding; sequences stand for … in TCGTCGGCAGCGTCAGATGTGTATAAGAGACAGTTTTTTTTTTTTTTTTTTTTTTTTT…TC
Details: aptamer strand: ATP DNA aptamer (quencher-CACCTGGGGGAGTATTGCGGAGGAAGG + anchor), 100 nM annealed; ATP concentration: 500 uM; one replicate
In short: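 After annealing to 100 nM quencher-labelled ATP aptamer, Cy3-labelled switching-strand clusters on a modified Illumina MiSeq flow-cell were imaged in selection buffer. A second image followed after 15 min with 500 uM ATP at 22 °C, and five such buffer/ATP cycles were done, each separated by NaOH stripping and re-annealing. The fluorescence ratio, averaged per switch-domain sequence, is summed target-cycle over summed buffer-cycle Cy3 intensity per cluster, with clusters outside 100-1000 RFU excluded.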
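Also: ATP exposure 15 min at 22 °C before imaging.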

Sequence	switch fluorescence ratio
CCTTTAATTC	1.18
AAGTTCAAGT	0.964
AAGCCCCGGG	1.05
GGGGCATACG	1.08
AATAACTTAT	1.06
TTATAAGGTG	1.64
AGTAGGTCCC	1.02
GAGTTTGGAT	0.977
AAAGTTGTG	0.931
ACCCGGGGGC	1.33
ACGAATAGCA	1.06
ACCCAGTTGA	1.26
GACCTTATTG	1
ATGTGCCAGC	1.01
GTCTAAATCT	1.05
CCGGAAGGAT	1.01
TTCCATTTGA	0.967
AGAGTAGGAC	1.03
CGGTACGTTC	0.956
CGGTACCCGT	0.987
AGGGACCTAT	1.05
ACATATGGCG	1.03
GGCGGTCCCC	1.02
ACGGGAGGGA	1.02
ATGCGCTACG	1.02
GTTCTCTTCG	1.01

Sequence	switch fluorescence ratio
CGGCCGAAG	0.998
GCTTCATGCG	0.981
GTGTATACTG	0.988
TCTGTTGAGC	0.982
CGAGAACAG	1.01
GGTGGACGGT	1.01
AATAGTAAAC	1.05
TCGTTTCTGT	0.983
CAGGGCTTTT	1.03
GTCTTCGGGG	1.07
TTGTGTAGG	1.04
GAGGTCCCAG	0.972
TGAGCACATC	1.39
GGATGGTATC	0.967
TTTCATGCCA	1
ATTCTGGCCA	0.981
TGAACTTTAG	1.05
GCGGTATACT	1.32
GTCCCAGATC	1.02
CGCTTATCCG	1
GTAGTCGTCT	0.899
TGAATGACTT	1.07
AGCGAGCATA	1.02
ATCTGCCGTA	1
AAAGCCGCTT	1.08
GGTGTGATA	1.03

Sequence	switch fluorescence ratio
CATTGAATC	0.952
GATTTTCGGA	1.07
CGGCATTTGA	0.992
AAAGCTGAGC	0.958
CGTCTGTGGC	1.07
CGGCGGGCAG	0.932
ATCATATTGT	0.998
GAGTTTATCT	0.974
TTTAGTTAGA	0.974
ACTGGTATCG	1.02
GAAGTGAAGC	1.02
TGCTCCTTCG	1.37
CTGTAGCGGC	2.36
TGAGAATTTC	1.01
GAGTGGTACG	0.966
AGGGTGGCCG	1.07
CACTGTCTAA	1.02
CTATGTGACA	0.998
GTCGTTCTGG	1.02
AGTCGAGACG	1.03
TTATGCCAAC	0.986
AGTATTAAGA	0.977
CATGGACCTA	1.04
GTTCGCTAGT	0.966
AACAGGAGCC	0.972
TACGCGTTAT	1.02

Sequence	switch fluorescence ratio
TATTGGACAC	1.04
TGTAGATGAC	1.12
CATGTCGCAA	4.11
ATGTCGAGCT	0.967
CAATTAGGT	1.03
TGTAAATTGG	1.05
GAAGTAACCC	1.05
CTTTCTCGGC	2.1
GATCGTGAT	0.992
AAACCTCACT	1.32
CTTCTGATTC	1.6
TATCAGGTCA	0.972
ACGCTATACA	3.58
TAAGTTAAG	0.986
ACCGGATTTT	0.988
TAACAGGGTC	1.02
ATAAATCAGA	0.996
TGTGCATGGT	0.984
TGAGATGTCA	0.972
TCTCTATTAT	1.03
TTTTAGCCAC	1.03
TGGGGCGAAT	1.02
CGACCTGTGT	1.19
GCCACCATTC	1.04
TCTTTGGGGC	0.985
AACAGGGTAG	1.03

Sequence	switch fluorescence ratio
TATGCCAAGC	0.969
CCTCGTGGGG	1.06
AAAGGGTCAA	0.966
GCCAGTTTCG	1.01
GTTGTCGCGC	1.04
ACAGCGGGGA	1.02
TATCCCTGCA	1.12
TGGTCCACTT	0.981
AGTGATATAA	1.02
CAAGGTGGGA	0.989
AGATCGACCA	0.982
TTAGTCCTAT	0.949
GGAGGCCTGG	1.04
GCAGAATAT	1.01
GAGTTTCTAC	0.951
GGGAAGGAAC	1.02
CGGCTGACGC	1.02
TAGATGCGAA	0.995
ATTTTGGATT	0.993
TACGTCGGTA	0.995
AACCAGGTAG	1.83
CTTCGTGAA	1.08
AAGACGAGTA	0.876
TACAGCCTTA	1.03
TGAAACACGT	0.976
TTGTCTGTGG	1

Sequence	switch fluorescence ratio
GACTGTGTCC	1
GGCGGCCAAG	0.973
ATACAAAGGA	1.03
TTAAGGAAG	0.993
ATACCAAATC	1.01
TAGCTGGAGC	1.1
GGGCAGCCCC	1.04
TTACTCTGAT	0.953
TCAAAATGGG	1.05
TTCTAGAGCA	1.11
TCTCTCCTT	1
GCTACTGTTT	1.01
GCGGTTCACG	1.02
GGCTTATCCG	1.02
TCTTGCGAGT	0.982
CACGTAACCG	1.1
ATTCCACCAT	1.09
GCAAAAGCAT	0.98
AACATTTGCC	1
AAAGTGCCGG	1.06
CCTGAGGTGA	0.959
CTAGCCACCA	0.957
TAGAAGGTGT	1.08
